# Source: publication PMC5700166
# This is a selection; strong and weak results do not stand in their true shares. The list includes weakly bound sequences.
# Biological target: T1, GST-Ap-NF-kB RHD (UniProt A0A913YAJ5)
# T1 sequence: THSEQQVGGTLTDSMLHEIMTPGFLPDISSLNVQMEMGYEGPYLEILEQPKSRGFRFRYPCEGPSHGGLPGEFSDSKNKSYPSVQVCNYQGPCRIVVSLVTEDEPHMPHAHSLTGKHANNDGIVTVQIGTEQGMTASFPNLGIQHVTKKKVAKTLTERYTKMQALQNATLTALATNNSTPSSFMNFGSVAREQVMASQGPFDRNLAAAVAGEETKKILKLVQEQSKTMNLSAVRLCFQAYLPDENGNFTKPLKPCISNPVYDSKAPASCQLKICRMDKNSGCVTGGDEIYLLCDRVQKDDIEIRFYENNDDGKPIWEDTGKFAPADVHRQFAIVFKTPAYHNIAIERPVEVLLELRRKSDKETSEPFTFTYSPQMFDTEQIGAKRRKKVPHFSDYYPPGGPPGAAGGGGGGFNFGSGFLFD
# Assay: protein-binding microarray (PBM)
# Details: PBM: ~300 nM protein, 6 mM HEPES pH 7.8, 80 mM KCl, 0.5 mM EDTA, 0.5 mM EGTA, 6% glycerol, 35 ng/ul poly-dIdC, 1% milk, 1 h, room temperature; Ap Aiptasia and Nv Nematostella (sea anemones) / Co Capsaspora / Aq Amphimedon (sponge) / Dm Drosophila / Hu human; RHD is the Rel homology domain; high values mean tight binding; most listed sequences are background and not binding sites; double strand, one strand shown
row,Sequence,binding signal [z-score]
1,CCGATTAACATCAGGGGGTGATATGATGTTAATCGGGTCTTGATTCGCTTGACGCTGCTG,3.88
2,CCGATTAACATCAGGGGGGTAAATGATGTTAATCGGGTCTTGATTCGCTTGACGCTGCTG,4.89
3,CCGATTAACATCACATATTCCCCTGATGTTAATCGGGTCTTGATTCGCTTGACGCTGCTG,7.49
4,CCGATTAACATCAGGGGGTTACATGATGTTAATCGGGTCTTGATTCGCTTGACGCTGCTG,6.46
5,CCGATTAACATCAAGGGGAATTCTGATGTTAATCGGGTCTTGATTCGCTTGACGCTGCTG,10.3
6,CCGATTAACATCAAAACTCCCCGTGATGTTAATCGGGTCTTGATTCGCTTGACGCTGCTG,7.7
7,CCGATTAACATCAAAAAACCCACTGATGTTAATCGGGTCTTGATTCGCTTGACGCTGCTG,2.65
8,CCGATTAACATCAAGGGGAAAATTGATGTTAATCGGGTCTTGATTCGCTTGACGCTGCTG,7.28
9,CCGATTAACATCAAAAATTCCAGTGATGTTAATCGGGTCTTGATTCGCTTGACGCTGCTG,0.126
10,CCGATTAACATCACGGGGGATTCTGATGTTAATCGGGTCTTGATTCGCTTGACGCTGCTG,8.95
11,CCGATTAACATCAACCTTTCCCCTGATGTTAATCGGGTCTTGATTCGCTTGACGCTGCTG,5.33
12,CCGATTAACATCAGGGAATTAAATGATGTTAATCGGGTCTTGATTCGCTTGACGCTGCTG,2.06
13,CCGATTAACATCAGAAAATACCCTGATGTTAATCGGGTCTTGATTCGCTTGACGCTGCTG,5.86
14,CCGATTAACATCACCCCACCCCCTGATGTTAATCGGGTCTTGATTCGCTTGACGCTGCTG,3.67
15,CCGATTAACATCAGGGGAGGGAATGATGTTAATCGGGTCTTGATTCGCTTGACGCTGCTG,3.95
16,CCGATTAACATCACGAGATTCCCTGATGTTAATCGGGTCTTGATTCGCTTGACGCTGCTG,3.03
17,CCGATTAACATCAGGGGGTAACATGATGTTAATCGGGTCTTGATTCGCTTGACGCTGCTG,4.79
18,CCGATTAACATCAGGGATAACCCTGATGTTAATCGGGTCTTGATTCGCTTGACGCTGCTG,3.63
19,CCGATTAACATCACAAAATCCCCTGATGTTAATCGGGTCTTGATTCGCTTGACGCTGCTG,9.85

row,Sequence,binding signal [z-score]
1,CCGATTAACATCACTGGGATTTCTGATGTTAATCGGGTCTTGATTCGCTTGACGCTGCTG,2.53
2,CCGATTAACATCAGGAAACACCCTGATGTTAATCGGGTCTTGATTCGCTTGACGCTGCTG,3.05
3,CCGATTAACATCAAGGGAATTCCTGATGTTAATCGGGTCTTGATTCGCTTGACGCTGCTG,7.9
4,CCGATTAACATCAGGGAAATAAATGATGTTAATCGGGTCTTGATTCGCTTGACGCTGCTG,2.39
5,CCGATTAACATCAAAATTCCCTGTGATGTTAATCGGGTCTTGATTCGCTTGACGCTGCTG,4.81
6,CCGATTAACATCAAGATTTCCCCTGATGTTAATCGGGTCTTGATTCGCTTGACGCTGCTG,8.78
7,CCGATTAACATCACGGAAATTTCTGATGTTAATCGGGTCTTGATTCGCTTGACGCTGCTG,0.81
8,CCGATTAACATCAGGACAACCCCTGATGTTAATCGGGTCTTGATTCGCTTGACGCTGCTG,3.21
9,CCGATTAACATCAAAAATCCACCTGATGTTAATCGGGTCTTGATTCGCTTGACGCTGCTG,2.25
10,CCGATTAACATCAGGAGTGCCCCTGATGTTAATCGGGTCTTGATTCGCTTGACGCTGCTG,2.63
11,CCGATTAACATCAAGTACTTCCCTGATGTTAATCGGGTCTTGATTCGCTTGACGCTGCTG,2.1
12,CCGATTAACATCAGGCTTCCCCCTGATGTTAATCGGGTCTTGATTCGCTTGACGCTGCTG,5.74
13,CCGATTAACATCAGAATCCCCCCTGATGTTAATCGGGTCTTGATTCGCTTGACGCTGCTG,9.22
14,CCGATTAACATCAGGGAGTTTTATGATGTTAATCGGGTCTTGATTCGCTTGACGCTGCTG,5.33
15,CCGATTAACATCAAAAGGGGATATGATGTTAATCGGGTCTTGATTCGCTTGACGCTGCTG,4.87
16,CCGATTAACATCACGTTTTTCCCTGATGTTAATCGGGTCTTGATTCGCTTGACGCTGCTG,3.81
17,CCGATTAACATCAAAGACCCCCCTGATGTTAATCGGGTCTTGATTCGCTTGACGCTGCTG,6.11
18,CCGATTAACATCAGAAATTACCCTGATGTTAATCGGGTCTTGATTCGCTTGACGCTGCTG,3.88
